Data taken from patent US20240209028A1, “CNP COMPOUNDS” (priority 2022, published 2024).
At least one read-out could not be matched to a standard name with certainty. Starred links: 1 amine or outer side, 2 acyl side, 3 side chain; linkers in the order of their positions; H or OH if unused. Positions of bridges follow the written chain, without caps; N, C: chain ends. Residues, ends and D or L forms follow the SMILES beside them. *: point of attachment. C18 diacid = O=C(O)CCCCCCCCCCCCCCCCC(=O)*; γGlu = O=C(O)[C@H](CCC(=O)[*:2])N[*:1]; AEEA = NCCOCCOCC(=O)O

Experiment: Thioflavin T (ThT) assay: lagtime and peptide recovery
Type: physicochemical
Settings: ThT assay, pH 6.5, after 45h incubation
Summary of the method: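 ThT (final about 1 μM) was added to peptide supernatants at pH 4.0 and 6.5 and incubated at 37 °C with orbital shaking for 45 h. Fluorescence (ex 444/em 485 nm) was read every 20 min, and lag-time was taken as the time to onset of signal rise. Recovery is the RP-UPLC (215 nm) total peak area after vs. before incubation.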

SMILES	Peptide Recovery (%) at pH 6.5 [%]
CC[C@H](C)[C@@H]1NC(=O)[C@H](CCCNC(=N)N)NC(=O)[C@H](CC(=O)O)NC(=O)[C@H](CC(C)C)NC(=O)[C@@H]2CCCN2C(=O)[C@H](CC(C)C)NC(=O)CNC(=O)[C@H](Cc2ccccc2)NC(=O)[C@@H](NC(=O)CNC(=O)[C@H](CCC(N)=O)NC(=O)[C@H](CO)NC(=O)CNC(=O)CNC(=O)[C@H](CCCCN)NC(=O)[C@H](CCCCN)NC(=O)[C@H](CCC(N)=O)NC(=O)[C@H](C)NC(=O)CNC(=O)[C@H](Cc2c[nH]cn2)NC(=O)[C@H](Cc2ccc(O)cc2)NC(=O)COCCOCCNC(=O)COCCOCCNC(=O)COCCOCCNC(=O)COCCOCCNC(=O)CC[C@H](NC(=O)CC[C@H](NC(=O)CCCCCCCCCCCCCCCCC(=O)O)C(=O)O)C(=O)O)CSSC[C@@H](C(=O)O)NC(=O)CNC(=O)[C@H](CC(C)C)NC(=O)CNC(=O)[C@H](CO)NC(=O)[C@H](CC(C)C)NC(=O)[C@H](CO)NC(=O)CNC1=O [compound 1434] ({C18 diacid-γGlu-γGlu-AEEA-AEEA-AEEA-AEEA}-YHGAQKKGGSQGCFGLPLDRIGSLSGLGC-OH; disulfide 13-29)	127
CC[C@H](C)[C@@H]1NC(=O)[C@H](CCCNC(=N)N)NC(=O)[C@H](CC(=O)O)NC(=O)[C@H](CC(C)C)NC(=O)[C@@H]2CCCN2C(=O)[C@H](CC(C)C)NC(=O)CNC(=O)[C@H](Cc2ccccc2)NC(=O)[C@@H](NC(=O)CNC(=O)[C@H](CCC(N)=O)NC(=O)[C@H](CO)NC(=O)[C@H](CC(C)C)NC(=O)CNC(=O)[C@H](CCCCN)NC(=O)[C@H](CCCCN)NC(=O)[C@H](CCC(N)=O)NC(=O)[C@H](C)NC(=O)CNC(=O)[C@H](CCCCN)NC(=O)[C@H](Cc2ccc(O)cc2)NC(=O)[C@H](CCCCN)NC(=O)[C@H](CCCNC(=N)N)NC(=O)[C@H](C)NC(=O)COCCOCCNC(=O)COCCOCCNC(=O)CC[C@H](NC(=O)CC[C@H](NC(=O)CC[C@H](NC(=O)CC[C@H](NC(=O)CC[C@H](NC(=O)CCCCCCCCCCCCCCCCC(=O)O)C(=O)O)C(=O)O)C(=O)O)C(=O)O)C(=O)O)CSSC[C@@H](C(=O)O)NC(=O)CNC(=O)[C@H](CC(C)C)NC(=O)CNC(=O)[C@H](CO)NC(=O)[C@H](CC(C)C)NC(=O)[C@H](CO)NC(=O)CNC1=O [compound 1453] ({C18 diacid-γGlu-γGlu-γGlu-γGlu-γGlu-AEEA-AEEA}-ARKYKGAQKKGLSQGCFGLPLDRIGSLSGLGC-OH; disulfide 16-32)	109
CC[C@H](C)[C@@H]1NC(=O)[C@H](CCCNC(=N)N)NC(=O)[C@H](CC(=O)O)NC(=O)[C@H](CC(C)C)NC(=O)[C@@H]2CCCN2C(=O)[C@H](CC(C)C)NC(=O)CNC(=O)[C@H](Cc2ccccc2)NC(=O)[C@@H](NC(=O)CNC(=O)[C@H](CCC(N)=O)NC(=O)[C@H](CO)NC(=O)[C@H](CO)NC(=O)CNC(=O)[C@H](CCCCN)NC(=O)[C@H](CCCCN)NC(=O)[C@H](CCC(N)=O)NC(=O)[C@H](C)NC(=O)CNC(=O)[C@@H]2CCCN2C(=O)[C@H](C)NC(=O)[C@H](CCC(N)=O)NC(=O)CNC(=O)[C@@H]2CCCN2C(=O)[C@H](C)NC(=O)[C@H](CCC(N)=O)NC(=O)CNC(=O)[C@@H]2CCCN2C(=O)[C@H](C)NC(=O)[C@H](CCC(N)=O)NC(=O)CNC(=O)COCCOCCNC(=O)COCCOCCNC(=O)CC[C@H](NC(=O)CCCCCCCCCCCCCCCCC(=O)O)C(=O)O)CSSC[C@@H](C(=O)O)NC(=O)CNC(=O)[C@H](CC(C)C)NC(=O)CNC(=O)[C@H](CO)NC(=O)[C@H](CC(C)C)NC(=O)[C@H](CO)NC(=O)CNC1=O [compound 1457] ({C18 diacid-γGlu-AEEA-AEEA}-GQAPGQAPGQAPGAQKKGSSQGCFGLPLDRIGSLSGLGC-OH; disulfide 23-39)	109
CC[C@H](C)[C@@H]1NC(=O)[C@H](CCCNC(=N)N)NC(=O)[C@H](CC(=O)O)NC(=O)[C@H](CC(C)C)NC(=O)[C@@H]2CCCN2C(=O)[C@H](CC(C)C)NC(=O)CNC(=O)[C@H](Cc2ccccc2)NC(=O)[C@@H](NC(=O)CNC(=O)[C@H](CCC(N)=O)NC(=O)[C@H](CO)NC(=O)[C@H](CC(C)C)NC(=O)CNC(=O)[C@H](CCCCN)NC(=O)[C@H](CCCCN)NC(=O)[C@H](CCC(N)=O)NC(=O)[C@H](C)NC(=O)CNC(=O)[C@H](CCCCN)NC(=O)[C@H](Cc2ccc(O)cc2)NC(=O)COCCOCCNC(=O)COCCOCCNC(=O)COCCOCCNC(=O)COCCOCCNC(=O)CC[C@H](NC(=O)CC[C@H](NC(=O)CCCCCCCCCCCCCCCCC(=O)O)C(=O)O)C(=O)O)CSSC[C@@H](C(=O)O)NC(=O)CNC(=O)[C@H](CC(C)C)NC(=O)CNC(=O)[C@H](CO)NC(=O)[C@H](CC(C)C)NC(=O)[C@H](CO)NC(=O)CNC1=O [compound 1478] ({C18 diacid-γGlu-γGlu-AEEA-AEEA-AEEA-AEEA}-YKGAQKKGLSQGCFGLPLDRIGSLSGLGC-OH; disulfide 13-29; C-terminus assumed)	99
CC[C@H](C)[C@@H]1NC(=O)[C@H](CCCNC(=N)N)NC(=O)[C@H](CC(=O)O)NC(=O)[C@H](CC(C)C)NC(=O)[C@@H]2CCCN2C(=O)[C@H](CC(C)C)NC(=O)CNC(=O)[C@H](Cc2ccccc2)NC(=O)[C@@H](NC(=O)CNC(=O)[C@H](CCC(N)=O)NC(=O)[C@H](CO)NC(=O)[C@H](CC(C)C)NC(=O)CNC(=O)[C@H](CCCCN)NC(=O)[C@H](CCCCN)NC(=O)[C@H](CCC(N)=O)NC(=O)[C@H](C)NC(=O)CNC(=O)[C@@H]2CCCN2C(=O)[C@H](C)NC(=O)[C@H](CCC(N)=O)NC(=O)CNC(=O)COCCOCCNC(=O)COCCOCCNC(=O)CC[C@H](NC(=O)CCCCCCCCCCCCCCCCC(=O)O)C(=O)O)CSSC[C@@H](C(=O)O)NC(=O)CNC(=O)[C@H](CC(C)C)NC(=O)CNC(=O)[C@H](CO)NC(=O)[C@H](CC(C)C)NC(=O)[C@H](CO)NC(=O)CNC1=O [compound 1484] ({C18 diacid-γGlu-AEEA-AEEA}-GQAPGAQKKGLSQGCFGLPLDRIGSLSGLGC-OH; disulfide 15-31; C-terminus assumed)	98

Same assay, conditions: after 45 h ThT incubation vs before, RP-UPLC

SMILES	Peptide Recovery (%) at pH 4.0 [%]
CC[C@H](C)[C@@H]1NC(=O)[C@H](CCCNC(=N)N)NC(=O)[C@H](CC(=O)O)NC(=O)[C@H](CC(C)C)NC(=O)[C@@H]2CCCN2C(=O)[C@H](CC(C)C)NC(=O)CNC(=O)[C@H](Cc2ccccc2)NC(=O)[C@@H](NC(=O)CNC(=O)[C@H](CCCCN)NC(=O)[C@H](CO)NC(=O)[C@H](CC(C)C)NC(=O)CNC(=O)[C@H](CCCCN)NC(=O)[C@H](CCCCN)NC(=O)[C@H](CCC(N)=O)NC(=O)[C@H](C)NC(=O)CNC(=O)[C@H](CCCCN)NC(=O)[C@H](Cc2ccc(O)cc2)NC(=O)[C@H](CCCCN)NC(=O)[C@H](CCCNC(=N)N)NC(=O)[C@H](C)NC(=O)COCCOCCNC(=O)COCCOCCNC(=O)CC[C@H](NC(=O)CC[C@H](NC(=O)CC[C@H](NC(=O)CC[C@H](NC(=O)CC[C@H](NC(=O)CCCCCCCCCCCCCCCCC(=O)O)C(=O)O)C(=O)O)C(=O)O)C(=O)O)C(=O)O)CSSC[C@@H](C(=O)O)NC(=O)CNC(=O)[C@H](CC(C)C)NC(=O)CNC(=O)[C@H](CO)NC(=O)[C@H](CC(C)C)NC(=O)[C@H](CO)NC(=O)CNC1=O [compound 1470] ({C18 diacid-γGlu-γGlu-γGlu-γGlu-γGlu-AEEA-AEEA}-ARKYKGAQKKGLSKGCFGLPLDRIGSLSGLGC-OH; disulfide 16-32)	121
CC[C@H](C)[C@@H]1NC(=O)[C@H](CCCNC(=N)N)NC(=O)[C@H](CC(=O)O)NC(=O)[C@H](CC(C)C)NC(=O)[C@@H]2CCCN2C(=O)[C@H](CC(C)C)NC(=O)CNC(=O)[C@H](Cc2ccccc2)NC(=O)[C@@H](NC(=O)CNC(=O)[C@H](CO)NC(=O)[C@H](CO)NC(=O)[C@H](CC(C)C)NC(=O)CNC(=O)[C@H](CCCCN)NC(=O)[C@H](CCCCN)NC(=O)[C@H](CCC(N)=O)NC(=O)[C@H](C)NC(=O)CNC(=O)[C@H](CCCCN)NC(=O)[C@H](Cc2ccc(O)cc2)NC(=O)[C@H](CCCCN)NC(=O)[C@H](CCCNC(=N)N)NC(=O)[C@H](C)NC(=O)[C@H](CCC(N)=O)NC(=O)[C@@H]2CCCN2C(=O)[C@H](Cc2c[nH]cn2)NC(=O)[C@H](CCC(=O)O)NC(=O)[C@H](CCC(N)=O)NC(=O)COCCOCCNC(=O)COCCOCCNC(=O)CC[C@H](NC(=O)CC[C@H](NC(=O)CC[C@H](NC(=O)CC[C@H](NC(=O)CCCCCCCCCCCCCCCCC(=O)O)C(=O)O)C(=O)O)C(=O)O)C(=O)O)CSSC[C@@H](C(=O)O)NC(=O)CNC(=O)[C@H](CC(C)C)NC(=O)CNC(=O)[C@H](CO)NC(=O)[C@H](CC(C)C)NC(=O)[C@H](CO)NC(=O)CNC1=O [compound 1473] ({C18 diacid-γGlu-γGlu-γGlu-γGlu-AEEA-AEEA}-QEHPQARKYKGAQKKGLSSGCFGLPLDRIGSLSGLGC-OH; disulfide 21-37; C-terminus assumed)	118
CC[C@H](C)[C@@H]1NC(=O)[C@H](CCCNC(=N)N)NC(=O)[C@H](CC(=O)O)NC(=O)[C@H](CC(C)C)NC(=O)[C@@H]2CCCN2C(=O)[C@H](CC(C)C)NC(=O)CNC(=O)[C@H](Cc2ccccc2)NC(=O)[C@@H](NC(=O)CNC(=O)[C@H](CCCCN)NC(=O)[C@H](CO)NC(=O)[C@H](CC(C)C)NC(=O)CNC(=O)[C@H](CCCCN)NC(=O)[C@H](CCCCN)NC(=O)[C@H](CCC(N)=O)NC(=O)[C@H](C)NC(=O)CNC(=O)[C@H](CCCCN)NC(=O)[C@H](Cc2ccc(O)cc2)NC(=O)[C@H](CCCCN)NC(=O)[C@H](CCCNC(=N)N)NC(=O)[C@H](C)NC(=O)[C@H](CCC(N)=O)NC(=O)[C@@H]2CCCN2C(=O)[C@H](Cc2c[nH]cn2)NC(=O)[C@H](CCC(=O)O)NC(=O)[C@H](CCC(N)=O)NC(=O)COCCOCCNC(=O)COCCOCCNC(=O)CC[C@H](NC(=O)CC[C@H](NC(=O)CC[C@H](NC(=O)CC[C@H](NC(=O)CC[C@H](NC(=O)CCCCCCCCCCCCCCCCC(=O)O)C(=O)O)C(=O)O)C(=O)O)C(=O)O)C(=O)O)CSSC[C@@H](C(=O)O)NC(=O)CNC(=O)[C@H](CC(C)C)NC(=O)CNC(=O)[C@H](CO)NC(=O)[C@H](CC(C)C)NC(=O)[C@H](CO)NC(=O)CNC1=O [compound 1474] ({C18 diacid-γGlu-γGlu-γGlu-γGlu-γGlu-AEEA-AEEA}-QEHPQARKYKGAQKKGLSKGCFGLPLDRIGSLSGLGC-OH; disulfide 21-37; C-terminus assumed)	161
CC[C@H](C)[C@@H]1NC(=O)[C@H](CCCNC(=N)N)NC(=O)[C@H](CC(=O)O)NC(=O)[C@H](CC(C)C)NC(=O)[C@@H]2CCCN2C(=O)[C@H](CC(C)C)NC(=O)CNC(=O)[C@H](Cc2ccccc2)NC(=O)[C@@H](NC(=O)CNC(=O)[C@H](CCC(N)=O)NC(=O)[C@H](CO)NC(=O)[C@H](CC(C)C)NC(=O)CNC(=O)[C@H](CCCCN)NC(=O)[C@H](CCCCN)NC(=O)[C@H](CCC(N)=O)NC(=O)[C@H](C)NC(=O)CNC(=O)[C@H](CCCCN)NC(=O)[C@H](Cc2ccc(O)cc2)NC(=O)COCCOCCNC(=O)COCCOCCNC(=O)COCCOCCNC(=O)COCCOCCNC(=O)CC[C@H](NC(=O)CC[C@H](NC(=O)CCCCCCCCCCCCCCCCC(=O)O)C(=O)O)C(=O)O)CSSC[C@@H](C(=O)O)NC(=O)CNC(=O)[C@H](CC(C)C)NC(=O)CNC(=O)[C@H](CO)NC(=O)[C@H](CC(C)C)NC(=O)[C@H](CO)NC(=O)CNC1=O [compound 1478] ({C18 diacid-γGlu-γGlu-AEEA-AEEA-AEEA-AEEA}-YKGAQKKGLSQGCFGLPLDRIGSLSGLGC-OH; disulfide 13-29; C-terminus assumed)	3
